Assay results from article PMC12136788.
The other results are listed elsewhere or left out.

B1: chr19:15272971:15273072:-|CDS|ENSG00000141867|msi1|total|mutant (ssRNA)
RNA: GGGAGUUCUACAGUCCGACGAUCGUCUGCGGAGAGCGGCCCUGGGACGAGAUUGAGAAAUCUGCCAGUAAUGGGGGAUGGACCCGAAACUUCCCAAAUGUCUACAACACAGGCCCAGGCCCAACCCCAGCCAGCCAACGCAGCCAACAGAGGAUUGAGCAUCA
B2: ENSG00000070961:be:win_6201|3pUTR|ENSG00000070961|bound_else_gene|NA|bound_elsewhere_windowed (ssRNA)
RNA: GGGAGUUCUACAGUCCGACGAUCAUCCCAAAUGUUUUUAAUCUUUGUAUAUUUUUUAAAAAUCCUUUUCUCCUCAUCAUUGCCUUUUUUGUGGUUGUAAAUAGACUUACUUGCACUUUGAAGAUGAGUUACUCCUUGUCAUCUCAACAGAGGAUUGAGCAUCA
B3: chr2:55866929:55867030:-|3pUTR|ENSG00000115380|msi1|FALSE|unique (ssRNA)
RNA: GGGAGUUCUACAGUCCGACGAUCAUUUAAGUCAGCCAAAGAAUAUUGUUACCUUAAAGCACUAUUUUAUUUAUAGAUAUAUCUAGUGCAUCUACAUCUCUAUACUGUACACUCACCCAUAAUUCAAACAAUUACACCAUGGUACAACAGAGGAUUGAGCAUCA
B4: chr6:119178661:119178762:-|3pUTR|ENSG00000111885|msi1|FALSE|unique (ssRNA)
RNA: GGGAGUUCUACAGUCCGACGAUCGAAAGAAGCUUUGCCAAUUUUACUUAUUCGUGAUCAAUCAAGGAAAAUCUAAUAAAUUUUAGGCCAAAUAAGAAUAUAGCAUAUUUAGUAUGGUUAUAGUCAACACAGAGAUCACAACUUCAACAGAGGAUUGAGCAUCA
B5: ENSG00000070961:be:win_6051|3pUTR|ENSG00000070961|bound_else_gene|NA|bound_elsewhere_windowed (ssRNA)
RNA: GGGAGUUCUACAGUCCGACGAUCCAGAAAUUUCCAGAGCAUUAUGUAGGUAGAAAAAAAUGCAAGCAAGCUGUUAAAGAUCUUGGAUCCCAUUAUAUAGUAUGUAUAGCUGAAAUCUGUAAUUCAAUCACUUUUUCUCUUUUACAACAGAGGAUUGAGCAUCA
B6: chr8:17299120:17299221:-|3pUTR|ENSG00000003987|unk|total|mutant (ssRNA)
RNA: GGGAGUUCUACAGUCCGACGAUCUCCUCAUUAUUUAAAAAUGCUAAACCUUGUAUCUCACUUUUUCUCUAACACUGAUUUAACCGCUAACGAGGCCGAAGCAACAUUCAUUCUCCUGGUCUUACAUAUGAAUUUAAGUAUCAGCAACAGAGGAUUGAGCAUCA
B7: chr19:1230895:1231275:-|CDS|ENSG00000099625|control|control|control (ssRNA)
RNA: GGGAGUUCUACAGUCCGACGAUCUCAGUAGAUGGAGGUGCUAGGGGUGGACCUGUGGGCCCUUGCCCCCCUUCGCCCCCCCCUAGGCGGCCCAGGGAGCGCUCUCCAGGCCCCGUGGACACGCGCUCGCCUGCCUCCAGCGGCCAACAGAGGAUUGAGCAUCA
B8: ENSG00000136451:be:win_1151|CDS|ENSG00000136451|bound_else_gene|NA|bound_elsewhere_windowed (ssRNA)
RNA: GGGAGUUCUACAGUCCGACGAUCUGUGCCAAACCUCCACGGCUGCUACGACACCUGUGACUCUCACUACUCCAUUCAGUAUAACAUCCUCUGUGUCGUCUGGGACUAUGUCAAACCCAGUCACAGUGGCAGCUGCAAUGAGCACAACAGAGGAUUGAGCAUCA
B9: chrX:153695679:153695780:+|3pUTR|ENSG00000130821|msi1|total|mutant (ssRNA)
RNA: GGGAGUUCUACAGUCCGACGAUCGGCAGCAGAACCAAGGCAAAUAUUUCAGCUGGGCUAUACCCCUCUCCCCAUCCCUGUUACCGAAGCUCCGAGAGCCAGCCAGCAAUGGAACCUUCUGGUUCCUGCGCCAAUCGCCACCAGCAACAGAGGAUUGAGCAUCA
B10: chr17:1004907:1005008:-|3pUTR|ENSG00000159842|msi1|total|mutant (ssRNA)
RNA: GGGAGUUCUACAGUCCGACGAUCAAGAGGGGCCAGGCUUCCUGGAGGGUGACUGAUGUGGCCGAAGCAGGUGUCCAGGCAGGCCGGCUGCAGCCAGGAGCUCCCUGGCACCGCAGGACCUCGUGGUACUCUUGCCUCCGAUUUCAACAGAGGAUUGAGCAUCA
B11: chr4:112276399:112276500:-|3pUTR|ENSG00000145365|unk|FALSE|unique (ssRNA)
RNA: GGGAGUUCUACAGUCCGACGAUCUUAUUCCCUGUGAUGCCCAGAGUAAUGGCCCAUCCAAAGAUGUCCAGAUGUCCAUGUGCUAGUCUCCAGAACUUGUAACUGUGUUGUUAUGUGGCAAAGGGGAAUGAAGGCUGCAGAUGGCAACAGAGGAUUGAGCAUCA
B12: chr6:149889094:149889339:-|three_prime_utr|ENSG00000164520|control|control|control (ssRNA)
RNA: GGGAGUUCUACAGUCCGACGAUCGGCAGCUCCCUUUAAAGGUCAAAAGCCUUCCCUGUGUGGGUGUCAGUGUGUGUGUGCGAUAGAAAAUUUGAUUGACUUCUCCGUGGGCUUCCUGUCUGGAGAGUCAGUGAUGGCUAUAAGCAACAGAGGAUUGAGCAUCA
B13: chr1:64777895:64778004:+|CDS|ENSG00000162437|unk|total|mutant (ssRNA)
RNA: GGGAGUUCUACAGUCCGACGAUCGGAUUUGUGGAAUACAUGAAAAAGGACUUUGCUGCAAAGGCCCGACUGGAGCUAUUGGGCCGACAGUUGGGAGCAUCAGCACUCUUUGCACAAUGGAUGGAUGUUAAUCUAUUGGCUUCACAACAGAGGAUUGAGCAUCA
B14: ENSG00000136451:be:win_401|CDS|ENSG00000136451|bound_else_gene|NA|bound_elsewhere_windowed (ssRNA)
RNA: GGGAGUUCUACAGUCCGACGAUCGCAUCUUGUCAACAGUCACUACAUCUUCCUCGGGCACCAACCCCAGUAGCAGUGCCAGCACCACAGCUAUGCCAGUGACCCAGUCUGUCAAGAAACCCAGUAAGCCUGUCAAGAAGAACCCAACAGAGGAUUGAGCAUCA
B15: ENSG00000123684:stop:overlap|stop_codon|ENSG00000123684|stop_codon|NA|stop_codon (ssRNA)
RNA: GGGAGUUCUACAGUCCGACGAUCCAUUUUUGUCAGGCUAUAUGUGGUACAACAUCAUUCAGUAUUUUUACCAUUGCCUGUUUUAGGAAUUGACGUGGACUUGUCAAGGUCACCGUAGGAGUUCAGACUUUCUUUCAUAAGUGUCAACAGAGGAUUGAGCAUCA
B16: chr1:205620050:205620151:-|CDS|ENSG00000158711|unk|FALSE|unique (ssRNA)
RNA: GGGAGUUCUACAGUCCGACGAUCGCCAAUGGAACUUCCAGAGAAUUUGUCACUGGAGCCUAAAGACCAGGAUUCAGUCUUGCUAGAAAAGGACAAAGUAAAUAAUUCAUCAAGAUCCAAGAAACCCAAAGGGUUAGAACUGGCCAACAGAGGAUUGAGCAUCA
B17: chr12:121847077:121847190:-|CDS|ENSG00000158104|unk|FALSE|unique (ssRNA)
RNA: GGGAGUUCUACAGUCCGACGAUCAAAAACCUGCAGUUCCACCGCUUCUGGUCCGUGGAUGACACGCAGGUGCACACGGAAUAUAGCUCUCUGCGAUCCAUUGUGGUGGCCAACUAUGAAGAGUCCAUCAAGAUGCCCAUCAAUCAACAGAGGAUUGAGCAUCA
B18: chr11:61865769:61866452:+|3pUTR|ENSG00000134824|msi1|total|mutant (ssRNA)
RNA: GGGAGUUCUACAGUCCGACGAUCUGCAGCCUGGUCACCCGGCAUCACCCCCGCUUUGGUUCUUCAGAUGCUCUUGGGGUUCACCGGGGCAGGUCCCCGUCGGGCAGGGCCCCUGACCCUCCCGGCCUGGCUUCACUCUCCCUGCAACAGAGGAUUGAGCAUCA
B19: chr3:125228010:125228111:-|3pUTR|ENSG00000163848|msi1|FALSE|unique (ssRNA)
RNA: GGGAGUUCUACAGUCCGACGAUCAGUUCUCUUCAUAUUUCAUAACUACAUUUCAAUAAUUCUAAACUUUCUACAUUGAUUUUUAGAUACUUAUUUUUCAAGCUUGGUUUCUCAGCUGAUCAGAUGAAUUUAUUCAACUUCAAUCAACAGAGGAUUGAGCAUCA
B20: chr14:102081487:102081564:-|3pUTR|ENSG00000080824|msi1_unk|FALSE|overlapping (ssRNA)
RNA: GGGAGUUCUACAGUCCGACGAUCGAAGAUAAGAUUUCUGUCUACUAAGUGAUGCUGUGAUACCUUAGGCACUAAAGCAGAGCUAGUAAUGCUUUUUGAGUUUCAUGUUGGUUUAUUUUCACAGAUUGGGGUAACGUGCACUGUCAACAGAGGAUUGAGCAUCA
B21: chr8:47773456:47773635:-|3pUTR|ENSG00000253729|msi1_unk|total|mutant (ssRNA)
RNA: GGGAGUUCUACAGUCCGACGAUCGUUUUUUCCUUUCAUUUUAUUCUCUUCCCGUUUUGACAUUUUAUGACCGAUUUGCUCUCCCGAAGGAAACGUCUUUAUUCCGGAGGGCAAAAAUUUUGGUCACCGCAUUCACUUUUGCUACAACAGAGGAUUGAGCAUCA
B22: chr7:106091418:106091523:-|3pUTR|ENSG00000008282|msi1|FALSE|unique (ssRNA)
RNA: GGGAGUUCUACAGUCCGACGAUCUUUACACCUUAAGCCUUAACAUGUAUCUUCAUUCAGAAAACAGUUAUAUUGUCAUACCAUAGUAGGAAGAAAAACCUUUAUUUGGAAUAUACACUACUGUAAGUUUGUACAGAUCAUAUACAACAGAGGAUUGAGCAUCA

biological target: MSI1 full-length (mouse, UniProt Q61474 1-362); test: nsRBNS (natural sequence RNA bind-n-seq); RBNS binding buffer (assumed for nsRBNS): 25 mM Tris pH 7.5, 150 mM KCl, 3 mM MgCl2, 0.01% Triton X-100, 500 ug/ml BSA, 20 U/ml SUPERase-In, 4 C; UNK is unkempt and MSI1 is Musashi-1; names of the RNAs are library labels; protein concentration not given here; high values mean tight binding
Sequence of UniProt Q61474 (Q61474 whole entry): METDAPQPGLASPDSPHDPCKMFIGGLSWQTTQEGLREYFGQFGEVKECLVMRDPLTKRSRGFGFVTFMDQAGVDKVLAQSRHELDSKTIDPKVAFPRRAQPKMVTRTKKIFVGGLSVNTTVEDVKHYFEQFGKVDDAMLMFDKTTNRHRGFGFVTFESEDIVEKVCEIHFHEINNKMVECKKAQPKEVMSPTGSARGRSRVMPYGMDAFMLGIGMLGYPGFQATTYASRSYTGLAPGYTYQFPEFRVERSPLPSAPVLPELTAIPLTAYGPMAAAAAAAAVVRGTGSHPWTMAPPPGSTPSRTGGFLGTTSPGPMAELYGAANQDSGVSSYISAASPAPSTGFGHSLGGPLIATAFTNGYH

| Binder | binding signal |
| --- | --- |
| B1 | 0.563 enrichment R |
| B2 | 2.22 enrichment R |
| B3 | 1.56 enrichment R |
| B4 | 6.72 enrichment R |
| B5 | 37.4 enrichment R |
| B6 | 6.95 enrichment R |
| B7 | 0.332 enrichment R |
| B8 | 0.425 enrichment R |
| B9 | 0.58 enrichment R |
| B10 | 0.486 enrichment R |
| B11 | 0.384 enrichment R |
| B12 | 0.676 enrichment R |
| B13 | 0.272 enrichment R |
| B14 | 0.559 enrichment R |
| B15 | 0.394 enrichment R |
| B16 | 1.02 enrichment R |
| B17 | 0.296 enrichment R |
| B18 | 0.458 enrichment R |
| B19 | 5.53 enrichment R |
| B20 | 0.492 enrichment R |
| B21 | 0.727 enrichment R |
| B22 | 0.951 enrichment R |
